Drawing on PMC7819943, “Rice protein-binding microarrays: a tool to detect cis-acting elements near promoter regions in rice”, this text covers binding signal for 42 sequences.

The other results are listed elsewhere or left out.

The target in the assay is T1, OsWOX13 (Oryza sativa, UniProt Q5QMM3 1-267).
T1 sequence: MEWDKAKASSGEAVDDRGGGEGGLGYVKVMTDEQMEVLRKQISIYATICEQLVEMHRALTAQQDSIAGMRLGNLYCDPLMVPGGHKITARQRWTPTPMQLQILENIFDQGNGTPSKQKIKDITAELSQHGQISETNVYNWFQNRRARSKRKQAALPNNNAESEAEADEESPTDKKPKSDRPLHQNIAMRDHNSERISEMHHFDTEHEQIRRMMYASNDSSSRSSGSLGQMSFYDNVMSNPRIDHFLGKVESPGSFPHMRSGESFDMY
Nature of the assay: protein-binding microarray (RPBM); PBS, 2% BSA, 51.3 ng/ul salmon testes DNA, 50 uM zinc acetate, 200 nM TF, 25 C, 1 h; high values mean tight binding. Particulars: protein: recombinant; tags: N-terminal polyhistidine and DsRed monomer fusion (pET32a); label: CyDye5-dUTP incorporated in the synthesized complementary strand; 3' TTTTT single-stranded linker to array surface; dsDNA, one strand shown. An outline of the steps:
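In PBS with 2% BSA, salmon testes DNA and 50 µM zinc acetate, 200 nM protein was incubated on a custom Agilent array at 25 °C for 1 h and then washed off. The array had been made double-stranded by primer extension with Cy5-dUTP and blocked with 2% BSA. The proteins were transcription factors fused N-terminally to polyhistidine and DsRed, expressed in E. coli BL21-CodonPlus and purified on Ni–NTA. The binding signal is per-feature fluorescence intensity (arbitrary units) from an Axon 4000B scanner.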
For the sequence “GCAAAACAGTCCATTAATCAATGACCAACAAAAGAGCCCCCGGAGTCACCTAGTGCAG”, the binding signal was 7000 fluorescence intensity (a.u.).
As for “AATAATAATTAACCCCACCGAGTAAATTTCCTAGCTTCGCCGGAGTCACCTAGTGCAG”, the binding signal was 11000 fluorescence intensity (a.u.).
Regarding “TTTATAATTAGTATCAAAACATCCGATATGATAGTTACTTCGGAGTCACCTAGTGCAG”, the binding signal is 17100 fluorescence intensity (a.u.).
On to “TAATTAATGAATCCAAATTAATCGCTCTGACCAGTTGCAACGGAGTCACCTAGTGCAG”, for which the binding signal is 9340 fluorescence intensity (a.u.).
For “TAATTTAATTGACATCGAATTAGACAAGAACTACTTGGTTCGGAGTCACCTAGTGCAG”, the binding signal is 37200 fluorescence intensity (a.u.).
On to “ACATTTACTTAATTGTAAATATATATTTTGGTAATATATGCGGAGTCACCTAGTGCAG”, for which the binding signal was 9650 fluorescence intensity (a.u.).
For “CATTGACTAATATGAGTCCTACATATCATTGAGATACCGACGGAGTCACCTAGTGCAG”, the binding signal is 3340 fluorescence intensity (a.u.).
As for “CCATAAATTGTGTGCTGCGATAGGTAGCTGGATCTCGCCGCGGAGTCACCTAGTGCAG”, the binding signal is 7560 fluorescence intensity (a.u.).
With “ATTAAATTTTATGTGCGATTTACAAGCTGAATAAATTTTGCGGAGTCACCTAGTGCAG” the figure was 7990 fluorescence intensity (a.u.).
To “CAACAAATTAGTTTCATTAAATCAATAATCAAAATTCAATCGGAGTCACCTAGTGCAG” belongs 11100 fluorescence intensity (a.u.).
As for “ATAATATAATTAAACGCTTGTCTGAATATATACAAGCTGGCGGAGTCACCTAGTGCAG”, the binding signal was 18900 fluorescence intensity (a.u.).
Consider “CACTAAACGTGGAATTAACTAGTAATTAGGCATGCAACGACGGAGTCACCTAGTGCAG”, for which the binding signal was 18000 fluorescence intensity (a.u.).
Regarding “TACTCTATCAATCATCGTCAGTTGAGCCTCAGCTCGCGCACGGAGTCACCTAGTGCAG”, the binding signal is 36300 fluorescence intensity (a.u.).
To “AACAGCCAATCAGAGCATAAATTTCAAACTTTTCTTGAAACGGAGTCACCTAGTGCAG” belongs 14700 fluorescence intensity (a.u.).
On to “AGTTTGATTGATTATGTTGTATCTTGCATGTAATTATAATCGGAGTCACCTAGTGCAG”, for which the binding signal was 49700 fluorescence intensity (a.u.).
“AATAGATTATGCAGAATGGGAACACGTGAATACGTGATGCCGGAGTCACCTAGTGCAG”: the binding signal is 7420 fluorescence intensity (a.u.).
To “GCTGATGATTGAAGCACACATTTCTCCATGTTGATGCTTTCGGAGTCACCTAGTGCAG” belongs 35800 fluorescence intensity (a.u.).
Regarding “TTTCATGATTAATTTCATCCTGCATGAGGCACACGTGCACCGGAGTCACCTAGTGCAG”, the binding signal is 23600 fluorescence intensity (a.u.).
On to “CACGGGATAACTGAGCTAAGTGACATGAACGATTTGGGTGCGGAGTCACCTAGTGCAG”, for which the binding signal is 3140 fluorescence intensity (a.u.).
With “GTGATGACGAGTTCGTCTTCATCGCTTCCGGTGTCGGCTCCGGAGTCACCTAGTGCAG”, the binding signal was 3260 fluorescence intensity (a.u.).
To “ATATAATTATAGTATAGTAGTAATACTACTACTCCTACCCCGGAGTCACCTAGTGCAG” belongs 20200 fluorescence intensity (a.u.).
In the case of “CGGGAATTTAAAATTCAAACTGGGAGTTCGTTTGTGATGCCGGAGTCACCTAGTGCAG”, the binding signal is 3800 fluorescence intensity (a.u.).
On to “GGCAATTAAGAATTTACCACTCACAATCTATAACACGTGGCGGAGTCACCTAGTGCAG”, for which the binding signal is 5980 fluorescence intensity (a.u.).
“CCTGATGACTGATGAGGACTGTGCAGCGATCGATATGTGCCGGAGTCACCTAGTGCAG”: the binding signal was 48600 fluorescence intensity (a.u.).
As for “CATATTTTAACCAATAATTTATTTCATGTTATGTTACCAACGGAGTCACCTAGTGCAG”, the binding signal is 3780 fluorescence intensity (a.u.).
“TTAAAACTAAATTTCAAAATTCAGATTTTGGTTTTGGCTTCGGAGTCACCTAGTGCAG”: the binding signal was 7400 fluorescence intensity (a.u.).
To “GAACCAGCGATGCGAATTTTCCTGCCCTGTTTTCTACTGTCGGAGTCACCTAGTGCAG” belongs 40500 fluorescence intensity (a.u.); to “AAATTTGAGGATTTGCCACTGTCAATCATGCGTGAGTCTTCGGAGTCACCTAGTGCAG”, 4000 fluorescence intensity (a.u.).
To “TCATAAATTTCCATGACAATATTTTCTGAACAATATTTTCCGGAGTCACCTAGTGCAG” belongs 5020 fluorescence intensity (a.u.).
With “GCGTCGGCAAGTGCTCCTGCTCCTCATCAACTGTGCCGCTCGGAGTCACCTAGTGCAG”, the binding signal is 3280 fluorescence intensity (a.u.).
With “TTGATTTGAATACATATTTGAAATTAGACTTAATCACTAACGGAGTCACCTAGTGCAG” the figure was 9280 fluorescence intensity (a.u.); with “GTAAATTCGAAAATTACATACTAATTACATATGTAAGTGGCGGAGTCACCTAGTGCAG”, 18900 fluorescence intensity (a.u.); with “ACAATTGACGACAAATTTATCAGAATTCAGAAATTGGGTACGGAGTCACCTAGTGCAG”, 25400 fluorescence intensity (a.u.).
With “TGAAATCATAATTATAAATTGTATATTCAGCTAGATTCTACGGAGTCACCTAGTGCAG”, the binding signal is 11000 fluorescence intensity (a.u.).
Turning to “CTATCTTAAATTGAGAAGGAAGGTAATAATATGTTGGTGCCGGAGTCACCTAGTGCAG”, the binding signal is 12400 fluorescence intensity (a.u.).
In the case of “AGTAATCATATAATAATCCAAGTTATACTGGAATCAAGGGCGGAGTCACCTAGTGCAG”, the binding signal is 4170 fluorescence intensity (a.u.).
On to “TCTTGATTACTTGCATAGAGAGCTTGGGATCATCCATTCACGGAGTCACCTAGTGCAG”, for which the binding signal is 28200 fluorescence intensity (a.u.).
For the sequence “ACTAATTATAAATATTAAACGTAGACTATTAATAAAACACCGGAGTCACCTAGTGCAG”, the binding signal was 18700 fluorescence intensity (a.u.).
With “AGTTCCTTCTAATTTATTTTATGTATTCTACAACTACAGCCGGAGTCACCTAGTGCAG”, the binding signal was 3950 fluorescence intensity (a.u.).
Consider “CATTTACTAATTTGTTTGCTTGATTGTCCTGGCGAAATTGCGGAGTCACCTAGTGCAG”, for which the binding signal was 40000 fluorescence intensity (a.u.).
For “TAATTAAATTGTCATATCACTTCTTAACTTATTGGACTAACGGAGTCACCTAGTGCAG”, the binding signal was 5280 fluorescence intensity (a.u.).
“CATGAAGCTGATTTGTTCCGTGAAGCAATTAGGATGGTGTCGGAGTCACCTAGTGCAG”: the binding signal was 6470 fluorescence intensity (a.u.).
